Data reported in a collection of fitness landscapes (doi:10.1016/j.celrep.2020.107928).
The full ranking holds about 81,000 sequences; the median of “one-hybrid fitness for binding parS DNA” is about -0.17, and the highest 2% start at about 0.51. Some of the results follow.

B1: Caulobacter ParB omega fusion; a variant is named by its letters at X, in order, B8GW30 (parent)
chain: MESVVVGEPGMSEGRRGLGRGLSALLGEVDAAPAQAPGEQLGGSREAPIEILQRNPDQPRRTFREEDLEDLSNSIREKGVLQPILVRPSPDTAGEYQIVAGERAWRAAQRAGLKTVPIMVRELDDLAVLEIGIIENVQRADLNVLEEALSYKVLMEKFERTQENIAQTIGKSXSHVANXMRLLXLPDEVQSYLVSGELTAXHARAIAAAADPVALAKQIIEGGLSVRETEALARKAPNLSAGKSKGGRPPRVKDTDTQALESDLSSVLGLDVSIDHRGSTGTLTITYATLEQLDDLCNRLTRGI

Variants of: B1
Test: one-hybrid fitness for binding parS DNA (scaled: cognate 1, non-cognate 0); higher = stronger binding
Settings: with parS DNA site
In short: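 The reporter was HIS3, with the binding site 19 bp from the promoter, in E. coli USO used for bacterial one-hybrid selection of Caulobacter ParB libraries with four specificity codons randomised. Growth was on M9 lacking histidine, with 0.1 mM IPTG and 5 mM 3-AT, for 48 hours at 37°C. Illumina sequencing covered plasmids before and after selection; three replicate libraries were pooled and variants with under 10 reads dropped. A fitness score is the log change in variant-to-wild-type read ratio, rescaled to the cognate and non-cognate references.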

one-hybrid fitness for binding parS DNA, 0.956:
RWTS

one-hybrid fitness for binding parS DNA, ≤ 0.2:
ASDS
FSNM
VTAA
WRDA
GTTC
MRFG
QVGE
PANS
HRFW
MQDS
PNMI
YVLL
QALT
RNKP
VMCC
NSTH
LPRD
DFKS
LLRY
WDNR
GTKF
WNAN
GVGR
TMKS
QSSQ
SILV
AKHS
NAIR
PRFD
PTCN
FGVR
PSST
NTLY
NGPW
STSQ
ANVS
EGNT
KDCT
DPAV
AFRF
VVLF
QTKV
RHQW
ENPC
QCWI
KYKT
IEEG
QPTV
MGNE
NNDT
HETT
LMCS
AWAN
EFEV
TYDG
REPN
VTWT
YCPT
QIKI
KYRE
RMVH
PKTK
TEQG
LLVF
GLNN
TKDT
FKMI
RLYP
VIEF
QIYR
MFCV
AKCT
MCGC
MILG
TRNA
QSSH
ERVA
VDQT

one-hybrid fitness for binding parS DNA, 0.319:
RHFN

one-hybrid fitness for binding parS DNA, 0.232:
RGKW

one-hybrid fitness for binding parS DNA, 0.925:
RLEG

one-hybrid fitness for binding parS DNA, 0.209:
SFRP

one-hybrid fitness for binding parS DNA, 0.329:
SEMH
